Several values for one entry are separate records, joined by “and”; a condition that tells them apart may be missing. Equal values may be shown once.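 Following 48 hours of exposure in 96-well plates, responses at five concentrations were used to interpolate endpoints linearly. GI50 is the concentration that inhibits growth by half. At the TGI there is no net growth.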
Each molecule was assayed on NCI-H322M lung (assay: NCI anticancer screen, dose series, 48 h).

First: CC1(C)CCC[C@@]2(C)C1CC[C@@]1(CO)O[C@H](C3=CC(=O)OC3O)C[C@H]12 (stereo partly drawn)
Second: O=C1C=CC2(O)OCC3C=C4O[C@@H]5OC6(CCCCC6)O[C@@H]5C4[C@@H]2[C@@H]13 (stereo partly drawn)
The TGI of the first is lower: 31.3 µM for the first, greater than 100 µM for the second.

`COCc1cc2c(s1)C(=O)C1=C(C2=O)C2(C=C(Br)C(=O)C(Br)=C2)CCN1` and `COC1=C(OC)C(=O)C(Cc2c(Cl)nc3sccn23)=C(C)C1=O` are within 1.5-fold of each other in TGI: 25.4 µM for the first, 29.8 µM for the second.

`O=C(Nc1cccc2ccccc12)c1cc2ccccc2oc1=O` and `O=c1c2ccc(Cl)cc2oc2c(CSc3ccccc3)cccc12` cannot be ordered by TGI: greater than 100 µM for the first, greater than 100 µM for the second.

`NC(=O)c1nc(-c2c(F)cccc2Cl)oc1Nc1ccc(C(=O)N2CCOCC2)cc1` and `CS(=O)(=O)OCCN1CCN(C(=O)c2ccc(Cl)c3c(Nc4ccc(S(=O)(=O)N=C(N)N)cc4)c4ccccc4nc23)CC1` cannot be ordered by TGI: greater than 100 µM for the first, greater than 100 µM for the second.

Going from `O=C([O-])c1ccc([I+]c2ccccc2)cc1` to `O=[N+]([O-])c1cccnc1S(=O)(=O)c1ccccc1`, the TGI falls from greater than 100 µM to 35.7 µM.

`O=C1c2cccc3c(N4CCOCC4)ccc(c23)C(=O)N1CCN1CCN(CCCCCN2CCN(CCN3C(=O)c4cccc5c(N6CCOCC6)ccc(c45)C3=O)CC2)CC1` and `CC(C)c1ccc(Cc2ccc(C(C)C)c(NC(=O)C(=O)Cc3cnc4ccccc4n3)c2C(C)C)c(C(C)C)c1NC(=O)C(=O)Cc1cnc2ccccc2n1` cannot be ordered by TGI: greater than 100 µM for the first, greater than 100 µM for the second.

`OCC1OC(OC2(CO)OC(CO)C(O)C2O)C(O)C(O)C1O` (stereo not drawn) and `Cc1ccc(-n2nc(C(OC3OC(CO)C(O)C(O)C3O)C(O)CO)c3nc4cc(C)c(C)cc4nc32)cc1` (stereo not drawn) cannot be ordered by TGI: greater than 100 µM for the first, greater than 100 µM for the second.

Compared with `S=C(Sc1ccc(Cl)cc1)Sc1ccc(Cl)cc1`, `Oc1cn(-c2ccc(Cl)cc2)nc1-c1n[nH]c(=S)n1-c1ccc(F)cc1` is higher in TGI: 23 µM for the first, greater than 100 µM for the second.

`OCc1ccc(-c2ccc(-c3ccc(CO)o3)o2)o1` and `COc1ccc(/C(C=O)=C(\Cl)c2ccc(OC)c(OC)c2)cc1` cannot be ordered by TGI: greater than 100 µM for the first, greater than 100 µM for the second.

Compared with `CCc1c(O)nc(Nc2nc3ccccc3[nH]2)[nH]c1=O`, `OCCNc1nc2ccccc2c2[nH]c3ccccc3c12` is lower in TGI: greater than 100 µM for the first, 3.86 µM for the second.

`O=C(O)[C@H]1NC[C@H]2C(Br)=NO[C@@H]12` and `Nc1nc(-c2ccccc2)c(CC(=O)O)s1` cannot be ordered by TGI: greater than 100 µM for the first, greater than 100 µM for the second.

`COc1cccc2c(=O)oc(-c3ccccc3C)nc12` and `Cc1cccc2c1nc1n2C(=O)c2ccccc2-1` cannot be ordered by TGI: greater than 100 µM for the first, greater than 100 µM for the second.

Compared with `COS(=O)c1cc(Cl)cc(Cl)c1OC(=O)CSSCC(=O)Oc1c(Cl)cc(Cl)cc1S(=O)OC` (stereo not drawn), `O=C(O)C1CCC(=O)N1C(=O)COc1cc(Cl)c(Cl)cc1Cl` (stereo not drawn) is higher in TGI: 42.8 µM for the first, greater than 100 µM for the second.

First: O=c1c2ccccc2nc(-c2cccc(Cl)c2)n1NC1OC(CO)C(O)C(O)C1O (stereo not drawn)
Second: NCCCNc1nc2ccccc2c2c(=O)c3cc(Cl)ccc3sc12
The TGI of the first is higher: greater than 100 µM for the first, 2.86 µM for the second.

`Cc1cc(NC(=O)NC(=O)c2ccccc2NC(=O)CN(C)C)ccc1Oc1ncc(Br)cn1` and `CC(=O)Nc1cccc(C#Cc2cncnc2Nc2ccc(OCc3cccc(F)c3)c(Cl)c2)c1` cannot be ordered by TGI: greater than 100 µM for the first, greater than 25 µM for the second.

`CC(C)(C)C(=O)c1c(O)c2ccccc2c2ccccc2c1=O` and `O=C(O)c1ccccc1NCn1nc(-c2ccccc2O)oc1=S` cannot be ordered by TGI: greater than 100 µM for the first, greater than 100 µM for the second.

`Cc1cc2nc(N3C(=O)/C(=C/Cc4ccco4)N=C3c3ccccc3)sc2cc1C` and `N#Cc1c(-c2ccccc2)c(-c2ccccc2)cc2c(=O)c3ccc(Cl)cc3[nH]c12` cannot be ordered by TGI: greater than 100 µM for the first, greater than 100 µM for the second.

`CCN1C(=O)N(CC)C2C1NC(=S)N2/N=C/C=C/c1ccccc1` (stereo not drawn) and `CC1(C)C(=O)/C(=C/c2ccccc2)C(C)(C)C1(C)C` cannot be ordered by TGI: greater than 100 µM for the first, greater than 100 µM for the second.

Compared with `Nc1c(C(=O)Nc2ccccc2)sc2nc3c(cc12)C(=O)CCC3`, `N#CC(C(=O)Nc1ccccc1)C1=C(Cl)C(=O)c2ccccc2C1=O` (stereo not drawn) is lower in TGI: greater than 100 µM for the first, 27.9 µM for the second.

`[N-]=[N+]=CC(=O)C1CCN(c2ccccc2)C1=O` (stereo not drawn) and `CC(=O)O[C@H]1CC[C@@H](OC(C)=O)[C@H]2[C@H](O)[C@H](O)[C@@H]1n1c(=O)n(-c3ccccc3)c(=O)n12` cannot be ordered by TGI: greater than 10 µM for the first, greater than 100 µM for the second.

Compared with `COc1cccc(/C=N/[N-]C(N)=O)c1[O-].[Cu+2].[OH3+]`, `COc1cc(C=O)cc(C=Nc2ccc(Br)cc2)c1O` is higher in TGI: 30.7 µM for the first, greater than 100 µM for the second.

`Clc1[nH]nc2ccccc12` and `Cn1c2c(c3c(=O)[nH]ncc31)Cc1ccccc1-2` cannot be ordered by TGI: greater than 100 µM for the first, greater than 100 µM for the second.

`CC(C)(C)O/N=C/c1cc(NC(=S)c2ccccc2)ccc1Cl` and `CC(C)(NO)/C(=N\O)c1ccccc1` cannot be ordered by TGI: 70.2 µM for the first, greater than 10 µM for the second.

First: C[C@]12CCc3nc(Nc4ccc(O)cc4)sc3C1=CC[C@@H]1[C@@H]2CC[C@]2(C)/C(=N/NC(N)=S)CC[C@@H]12
Second: COC(=O)[C@H](C)NC(=O)[C@H](NS(=O)(=O)c1nc2ccccc2s1)c1ccccc1
The TGI of the first is 14-fold lower: 4.09 µM for the first, 56.4 µM for the second.

`Cc1nc2ccncc2[nH]1` and `CC1=NC(=N)N=C(C)C1N=Nc1ccc2nc(C)[nH]c2c1` (stereo not drawn) cannot be ordered by TGI: greater than 100 µM for the first, greater than 100 µM for the second.

`CC(C)OC(=O)C(NC(=O)C(CC(=O)OCc1ccccc1)NC(=O)OCc1ccccc1)NC(=O)C1C(C)(C)CCC1(C)C` (stereo not drawn) and `CCOC(=O)[C@@H](C)C[C@H](Cc1ccccc1)NC(=O)c1csc([C@@H](C[C@H](C(C)C)N(C)C(=O)CNC(=O)[C@H]2CCCCN2C)OC(C)=O)n1` cannot be ordered by TGI: greater than 67.7 µM for the first, greater than 14.3 µM for the second.

`CC(C)Oc1cccc(N2C(CCc3c[nH]c4ccc(Br)cc34)=NS(=O)(=O)c3cnccc32)c1` and `CCOC(=O)c1cc(C(=O)c2ccc(OC)c(OC)c2)n2c1ccc1ccc3cccnc3c12` cannot be ordered by TGI: greater than 100 µM for the first, greater than 100 µM for the second.

`CC1CCCP(=O)(c2ccccc2)CCC1` (stereo not drawn) and `CCOC(=O)C[C@@]12CCCN[C@]1(C)CCc1ccccc12` cannot be ordered by TGI: greater than 100 µM for the first, greater than 100 µM for the second.

First: CCCCCCC(=O)OC[n+]1ccc2c(C)c3[nH]c4ccc(OC)cc4c3c(C)c2c1
Second: COc1c(OC2OC(CO)C(O)C(O)C2O)cc2c(c1OC)-c1ccc(OC)c(=O)cc1C(NC(C)=O)CC2 (stereo not drawn)
The TGI of the first is lower: 1.88 µM for the first, greater than 100 µM for the second.

Compared with `COCOC1CCCC[C@@]1(OCCOCCO[C@@]1(c2ccccc2)CCCC[C@H]1OCOC)c1ccccc1` (stereo partly drawn), `C[n+]1c2ccccc2n2c3ccccc3c(NCCCn3ccnc3)c(C#N)c21` is lower in TGI: greater than 100 µM for the first, 17.8 µM for the second.

First: Nc1nc(Cl)c2ncn(Cc3ccc(C45CC6CC(CC(C6)C4)C5)c(OCc4cc(F)c(F)cc4F)c3)c2n1
Second: O=c1[nH]ncc2[nH]c3c(c12)CCc1ccccc1-3
The TGI of the first is lower: 25.5 µM for the first, greater than 100 µM for the second.

First: Cc1ccc(S(=O)(=O)OCCN(CCOS(=O)(=O)c2ccc(C)cc2)c2ccc(C=O)cc2)cc1
Second: CN(C)c1cccc2c(S(=O)(=O)NCCN)cccc12
The TGI of the first is lower: 46.9 µM for the first, greater than 100 µM for the second.

Compared with `CCCCCCCCCCCCCCCCNc1nc(=O)n(C2OC(C)C(O)C2O)cc1F` (stereo not drawn), `CCCC(O)[C@@]1(CC)CC(C)C(O)(C2(C)C[C@H](C)[C@@H](C(CC)C(=O)C(C)[C@@H](O)[C@H](C)C3OC(O)(C(CC)C(=O)O)[C@@H](C)C(O)C3CC)O2)O1` (stereo partly drawn) is 4.7-fold lower in TGI: 32.1 µM for the first, 6.9 µM for the second.

`C/C(=N\NC(=S)N1CCC1)c1ccccn1` and `Cc1nnc(SCc2nc(C#N)c(C#N)nc2CSc2nnc(C)s2)s1` cannot be ordered by TGI: greater than 70.9 µM for the first, greater than 100 µM for the second.

Molecule `CC(C)N(C(=O)C12C3C4C1C1C4(C#N)C3C12C(=O)O)C(C)C` (stereo not drawn) has a TGI greater than 100 µM.

`NC(=O)c1nc(-c2c(F)cccc2Cl)oc1Nc1ccc(C(=O)N2CCOCC2)cc1` and `CCOC(=O)c1cc(C(=O)c2ccc(OC)c(OC)c2)n2c1ccc1ccc3cccnc3c12` are within 1.5-fold of each other in GI50: 4.57 µM for the first, 6.09 µM for the second.

Compared with `O=C1c2cccc3c(N4CCOCC4)ccc(c23)C(=O)N1CCN1CCN(CCCCCN2CCN(CCN3C(=O)c4cccc5c(N6CCOCC6)ccc(c45)C3=O)CC2)CC1`, `NCCCNc1nc2ccccc2c2c(=O)c3cc(Cl)ccc3sc12` is 55-fold lower in GI50: 81.3 µM for the first, 1.49 µM for the second.

`OCC1OC(OC2(CO)OC(CO)C(O)C2O)C(O)C(O)C1O` (stereo not drawn) and `OCc1ccc(-c2ccc(-c3ccc(CO)o3)o2)o1` cannot be ordered by GI50: greater than 100 µM for the first, greater than 62.2 µM for the second.

Going from `S=C(Sc1ccc(Cl)cc1)Sc1ccc(Cl)cc1` to `Oc1cn(-c2ccc(Cl)cc2)nc1-c1n[nH]c(=S)n1-c1ccc(F)cc1`, the GI50 rises from 5.67 µM to 22.8 µM (4-fold).

Going from `CC(=O)Nc1cccc(C#Cc2cncnc2Nc2ccc(OCc3cccc(F)c3)c(Cl)c2)c1` to `COc1ccc([C@@]23Oc4cc(OC)cc(OC)c4[C@]2(O)[C@H](O)[C@H](C(=O)N(C)C)[C@H]3c2ccccc2)cc1`, the GI50 falls from 5.88 µM to 0.0231 µM (250-fold).

First: CCN1C(=O)N(CC)C2C1NC(=S)N2/N=C/C=C/c1ccccc1 (stereo not drawn)
Second: O=C(O)c1ccccc1NCn1nc(-c2ccccc2O)oc1=S
The GI50 of the first is lower: 1.16 µM for the first, greater than 100 µM for the second.

`Nc1c(C(=O)Nc2ccccc2)sc2nc3c(cc12)C(=O)CCC3` and `OCCNc1nc2ccccc2c2[nH]c3ccccc3c12` are within 1.5-fold of each other in GI50: 0.38 µM for the first, 0.501 µM for the second.

Compared with `C[C@]12CCc3nc(Nc4ccc(O)cc4)sc3C1=CC[C@@H]1[C@@H]2CC[C@]2(C)/C(=N/NC(N)=S)CC[C@@H]12`, `Nc1nc(Cl)c2ncn(Cc3ccc(C45CC6CC(CC(C6)C4)C5)c(OCc4cc(F)c(F)cc4F)c3)c2n1` is 4.1-fold higher in GI50: 1.84 µM for the first, 7.49 µM for the second.

First: CCOC(=O)[C@@H](C)C[C@H](Cc1ccccc1)NC(=O)c1csc([C@@H](C[C@H](C(C)C)N(C)C(=O)CNC(=O)[C@H]2CCCCN2C)OC(C)=O)n1
Second: C/C(=N\NC(=S)N1CCC1)c1ccccn1
The GI50 of the first is 130-fold higher: 1.17 µM for the first, 0.00879 µM for the second.

With `COc1ccc([C@@]23Oc4cc(OC)cc(OC)c4[C@]2(O)[C@H](O)[C@H](C(=O)N(C)C)[C@H]3c2ccccc2)cc1` the TGI was 0.0771 µM and 0.194 µM and 0.117 µM.

— PubChem BioAssay (NCI)
